The source of these data is ChEMBL document CHEMBL4888484, “Replenishing the malaria drug discovery pipeline: Screening and hit evaluation of the MMV Hit Generation Library 1 (HGL1) against asexual blood stage Plasmodium falciparum ,using a nano luciferase reporter read-out” (2022).

The structures appear in SMILES notation. In all, about 150,000 compounds went through this assay and about 540 (0.36%) showed an effect of 50% or more. The list shows a part of the results.

In the test the test system is Plasmodium falciparum. Briefly: Primary screen in NF54 nanoGlo assay, in single point, at 2uM, 72h; a lower Z score goes with more inhibition. The class given is functional, Erythrocyte. To be noted: timepoint 72 hour.
Take `Cc1c(Cl)cccc1-c1ccc(C(=O)N[C@@H](C)c2nc(C3CC3)no2)cc1`: the “% Inhibition” value is listed as -5% and the Z score came out at 0.91.

Regarding `Cc1cccc(NC(=O)[C@@H](C#N)C(=O)COc2ccc(F)cc2)c1`, the “% Inhibition” value is on record as -3% and the Z score turned out to be 0.45.

With `Cc1ncsc1CCc1nc(CN2CCOCC2)no1`, the “% Inhibition” value is reported as 20% and the Z score was -2.72.

For `CCn1cnnc1[C@H]1CCCN(Cc2cc(F)cc(F)c2)C1`, the “% Inhibition” value is -12% and the Z score is listed as 1.28.

As for `C=C[C@H]1OCC[C@@H]1C(=O)NC1(C(=O)N(C)C)CCCCC1`, the “% Inhibition” value is -1% and the Z score was 0.12.

For `CCc1noc(C)c1C(=O)OCc1nc(N)nc(Nc2ccccc2)n1`, the “% Inhibition” value was -10% and the Z score stood at 1.86.

In the case of `Cc1ccc(OCc2c(C(=O)N3CCC[C@H](c4nc(C)ncc4CO)C3)noc2C)cc1`, the “% Inhibition” value is listed as -17% and the Z score is 1.96.

Consider `CCCc1nnc(NCC2(COC)CCCC2)s1`, for which the “% Inhibition” value is given as -12% and the Z score came to 2.33.

As to `Cc1cnn([C@@H](C)C2CC2)c1NC(=O)c1nn(C)c(=O)c2ccccc12`, the “% Inhibition” value was 12% and the Z score was -1.69.

As to `Cc1c[nH]c(C(=O)N2CCN(C)[C@@]3(CCNC(=O)CC3)C2)c1`, the “% Inhibition” value was -10% and the Z score is reported as 1.55.

With `Cc1nc([C@H](C)NC(=O)c2ccc(C)s2)n[nH]1`, the “% Inhibition” value is -10% and the Z score is on record as 1.7.

On to `COc1ccc2nc(C)c(C(=O)N3CCO[C@@H](COC(C)C)C3)n2n1`, for which the “% Inhibition” value is recorded as 9% and the Z score was -1.08.

Regarding `O=C(Nc1ccn(-c2ncccc2Cl)n1)N1CC[C@H](O)C1`, the “% Inhibition” value is 0% and the Z score was 0.04.

On to `CCc1nnsc1C(=O)NCCN1CCCCC1`, for which the “% Inhibition” value came out at 1% and the Z score is reported as -0.16.

Regarding `COC(=O)[C@H]1Cc2[nH]ncc2N(Cc2ncc(C)o2)C1`, the “% Inhibition” value amounted to 5% and the Z score is on record as -0.6.

For `O=C(CCc1cccnc1)N[C@H]1CCN(c2cnccn2)C[C@@H]1O`, the “% Inhibition” value was -17% and the Z score is on record as 2.98.

Consider `CCN1CCCC[C@@H]1CNS(=O)(=O)c1ccnn1C(C)C`, for which the “% Inhibition” value is -6% and the Z score was 1.35.

With `CCC[C@]1(CO)CCCN(C(=O)c2cnc(-c3cccnc3)nc2C)C1`, the “% Inhibition” value is reported as -7% and the Z score turned out to be 1.37.

For the compound `COc1ccc(CCCN(C)c2ccc(-c3nc(C)c(C)c(=O)[nH]3)cn2)cc1`, the “% Inhibition” value is on record as -14% and the Z score amounted to 1.81.

Take `O=C(Nc1nnc2ccccn12)c1cccc(NC(=O)c2ccco2)c1`: the “% Inhibition” value is -11% and the Z score amounted to 2.26.

On to `O=C(c1ccc2sccc2c1)N1CCOCC1`, for which the “% Inhibition” value is recorded as -7% and the Z score is recorded as 0.75.

In the case of `CCCN(CC#Cc1ccccc1)C(=O)c1c(Cl)cnn1CC`, the “% Inhibition” value is on record as -1% and the Z score is 0.07.

For the compound `CN(CCN(C)c1nc(C2CCCCC2)ns1)C(=O)[C@H]1CCC(=O)N1`, the “% Inhibition” value is 4% and the Z score is listed as -0.64.

`CCc1cc(N2CCC[C@](Cc3ccc(F)cc3F)(C(=O)O)C2)ncn1`: the “% Inhibition” value came out at 5% and the Z score is recorded as -1.02.

In the case of `CC(C)c1cnc(N2CCC(c3nnc4n3CCNC4)CC2)s1`, the “% Inhibition” value is on record as -1% and the Z score amounted to 0.2.

Consider `CCc1cccc2c1N(Cc1ncoc1C1CC1)CCC2`, for which the “% Inhibition” value is on record as -10% and the Z score is 0.82.

In the case of `O=C(Cc1noc2ccccc12)N1CCN(c2ccc(-c3ccccn3)nn2)CC1`, the “% Inhibition” value came out at 6% and the Z score was -0.88.

`CCN(CCO)CC(=O)Nc1c(Cl)cccc1Cl`: the “% Inhibition” value is listed as -4% and the Z score stood at 0.67.

For the compound `CN(C)C(=O)Cn1cc2c(n1)[C@@H](Nc1ccc(C(F)(F)F)nn1)CCC2`, the “% Inhibition” value was -6% and the Z score turned out to be 0.66.

With `CN1CCCN(C(=O)NC[C@H]2CCCN2Cc2ccccc2)CC1=O`, the “% Inhibition” value is -6% and the Z score is recorded as 0.7.

For `Cc1ccoc1CN[C@H](c1nc(C2CC2)no1)C(C)C`, the “% Inhibition” value is recorded as -1% and the Z score stood at 0.14.

Take `CN1CCC(n2nc(C3CCCC3)nc2-c2c[nH]nc2-n2cnnn2)CC1`: the “% Inhibition” value is on record as -8% and the Z score came to 1.06.

`O=C(Nc1nc(C2CC2)cs1)[C@H]1CCOC1`: the “% Inhibition” value is 10% and the Z score is on record as -1.28.

Consider `CCCn1cnnc1[C@H](C)NC(=O)c1cncc(F)c1`, for which the “% Inhibition” value is given as -8% and the Z score turned out to be 0.78.

In the case of `CN1CCN2CCN(C(=O)c3ccc(F)c(O)c3)C[C@@H]2C1`, the “% Inhibition” value is -7% and the Z score is recorded as 1.23.

Turning to `O=C(c1ccc(Oc2ccccc2)o1)N1C[C@@H](CN2CCOCC2)[C@@H](CO)C1`, the “% Inhibition” value is -13% and the Z score stood at 1.25.

In the case of `N#Cc1cc(N2CCC3(CCN(Cc4ccccc4)CC3)CC2)ncn1`, the “% Inhibition” value is reported as 9% and the Z score is given as -1.05.

In the case of `Cc1c(C(=O)N(C)CC2(O)CCCC2)nnn1-c1cccc2ncccc12`, the “% Inhibition” value was -19% and the Z score worked out at 2.36.

For the compound `O=C(CCc1nc2ncccc2[nH]1)NCCCN1CCOCC1`, the “% Inhibition” value is -9% and the Z score is given as 0.96.

Consider `O=C(c1ccc(-n2cccn2)nn1)N1CCc2ccccc21`, for which the “% Inhibition” value is reported as -8% and the Z score stood at 1.43.

`O=C(NCc1cncc(C2CC2)c1)c1ccc2c(c1)OCO2`: the “% Inhibition” value is given as -7% and the Z score is listed as 1.2.

Take `CC1CCC2(CCN(S(=O)(=O)CCC(F)(F)F)C2)C1` (stereo unspecified): the “% Inhibition” value stood at 1% and the Z score is on record as -0.11.

Consider `COC(=O)[C@@H](NC(=O)c1ccccc1F)C(C)C`, for which the “% Inhibition” value is -10% and the Z score was 1.32.
